Whole data set: some 2,900 compounds, median “NF-kB SEAP reporter activity, fold change vs agonist alone” near 0.99, cut for the highest 2% near 2.6. Some of the results follow.
Experiments:
[1] = test system: RAW-Dual; assay: NF-kB SEAP reporter activity, fold change vs agonist alone; higher = enhanced NF-kB activity; settings: cytotoxicity flag (confluency mask): not cytotoxic
How it was run: (§1)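 RAW-Dual macrophages (50,000 cells/well in DMEM, 384-well plates) received 50 nL of library stock by pin tool, then a PRR agonist 1 h later, and were kept at 37 °C, 5% CO2. After 20 hours, supernatant was read for IRF by QuantiLuc luminescence and for NF-κB by QuantiBlue absorbance at 620 nm. Reporter activity is fold change over agonist-alone wells. Cytotoxic wells had IncuCyte confluency below 70% of agonist controls in both mask sets.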

[2] = test system: RAW-Dual; assay: NF-kB SEAP reporter activity, fold change vs agonist alone; cytotoxicity flag (confluency mask): not cytotoxic; higher = enhanced NF-kB activity
How it was run: as §1

[3] = library stock concentration (final ~1000-fold dilution): 10 mM, agonist: Imiquimod (TLR7) […]
[4] = library stock concentration (final ~1000-fold dilution): 10 mM, agonist: MPLA (TLR4) […]
[5] = agonist: ODN 1826 (TLR9) 0.5 ug/mL
[6] = agonist: Pam2CSK4 (TLR2/6) 0.1 ug/mL
[7] = agonist: Pam3CSK4 (TLR2/1) 0.1 ug/mL

Nc1c(CC(=O)O)cccc1C(=O)c1ccc(Br)cc1
NF-kB SEAP reporter activity [1, 3]: 0.922 | NF-kB SEAP reporter activity [1, 4]: 0.993

Nc1c(CC(=O)O)cccc1C(=O)c1ccc(Br)cc1 (library stock concentration (final ~1000-fold dilution): 10 mM)
NF-kB SEAP reporter activity ([2]; agonist: LPS (TLR4) 0.1 ug/mL): 1.39 | NF-kB SEAP reporter activity [2, 5]: 0.943 | NF-kB SEAP reporter activity [2, 6]: 0.89 | NF-kB SEAP reporter activity [2, 7]: 1.04

Cn1nccc1Nc1nccc(-c2cc3c(s2)C(C)(C)N(CCN2CCOCC2)C3=O)n1
NF-kB SEAP reporter activity [1, 3]: 0.273 | NF-kB SEAP reporter activity [1, 4]: 0.302

Cn1nccc1Nc1nccc(-c2cc3c(s2)C(C)(C)N(CCN2CCOCC2)C3=O)n1 (library stock concentration (final ~1000-fold dilution): 10 mM)
NF-kB SEAP reporter activity ([2]; agonist: LPS (TLR4) 0.1 ug/mL): 0.473 | NF-kB SEAP reporter activity [2, 5]: 0.371 | NF-kB SEAP reporter activity [2, 6]: 0.0728 | NF-kB SEAP reporter activity [2, 7]: 0.14

Cl.N=C(N)NC(=O)c1nc(Cl)c(N)nc1N.O.O
NF-kB SEAP reporter activity ([1]; library stock concentration (final ~1000-fold dilution): 10 mM water, agonist: Imiquimod (TLR7) […]): 0.827 | NF-kB SEAP reporter activity ([1]; library stock concentration (final ~1000-fold dilution): 10 mM water, agonist: MPLA (TLR4) […]): 1.01

Cl.N=C(N)NC(=O)c1nc(Cl)c(N)nc1N.O.O (library stock concentration (final ~1000-fold dilution): 10 mM water)
NF-kB SEAP reporter activity ([2]; agonist: LPS (TLR4) 0.1 ug/mL): 1.07 | NF-kB SEAP reporter activity [2, 5]: 1.09 | NF-kB SEAP reporter activity [2, 6]: 0.993 | NF-kB SEAP reporter activity [2, 7]: 0.984

COc1cc2c(cc1OCCCN1CCCC1)N=C(N)C21CCC1
NF-kB SEAP reporter activity [1, 3]: 0.803 | NF-kB SEAP reporter activity [1, 4]: 0.854

COc1cc2c(cc1OCCCN1CCCC1)N=C(N)C21CCC1 (library stock concentration (final ~1000-fold dilution): 10 mM)
NF-kB SEAP reporter activity ([2]; agonist: LPS (TLR4) 0.1 ug/mL): 0.857 | NF-kB SEAP reporter activity [2, 5]: 0.882 | NF-kB SEAP reporter activity [2, 6]: 0.941 | NF-kB SEAP reporter activity [2, 7]: 1.05

CNC(=O)c1ccc(-c2cnc3cnc(-c4ccccc4)cn23)cc1 (library stock concentration (final ~1000-fold dilution): 10 mM)
NF-kB SEAP reporter activity ([2]; agonist: LPS (TLR4) 0.1 ug/mL): 1.54 | NF-kB SEAP reporter activity [2, 5]: 0.763 | NF-kB SEAP reporter activity [2, 6]: 1.22 | NF-kB SEAP reporter activity [2, 7]: 2.3

CNC(=O)c1ccc(-c2cnc3cnc(-c4ccccc4)cn23)cc1
NF-kB SEAP reporter activity [1, 3]: 1.1 | NF-kB SEAP reporter activity [1, 4]: 1.37

COc1ccc(CCNCc2ccc(OCc3ccc(Cl)nc3)c(OC)c2)cc1OC.Cl
NF-kB SEAP reporter activity [1, 3]: 0.962 | NF-kB SEAP reporter activity [1, 4]: 1.15

COc1ccc(CCNCc2ccc(OCc3ccc(Cl)nc3)c(OC)c2)cc1OC.Cl (library stock concentration (final ~1000-fold dilution): 10 mM)
NF-kB SEAP reporter activity ([2]; agonist: LPS (TLR4) 0.1 ug/mL): 0.786 | NF-kB SEAP reporter activity [2, 5]: 0.179 | NF-kB SEAP reporter activity [2, 6]: 0.84 | NF-kB SEAP reporter activity [2, 7]: 0.989

CC12CCC(=O)C=C1C=CC1C2CCC2(C)C1CCC21CCC(=O)O1 (stereo unspecified) (library stock concentration (final ~1000-fold dilution): 10 mM)
NF-kB SEAP reporter activity ([2]; agonist: LPS (TLR4) 0.1 ug/mL): 0.949 | NF-kB SEAP reporter activity [2, 5]: 1.05 | NF-kB SEAP reporter activity [2, 6]: 0.849 | NF-kB SEAP reporter activity [2, 7]: 0.874

CC12CCC(=O)C=C1C=CC1C2CCC2(C)C1CCC21CCC(=O)O1 (stereo unspecified)
NF-kB SEAP reporter activity [1, 4]: 1.05
